Data reported in PMC4336329 (PLoS ONE, 2015).
The whole screen tested about 310,000 compounds, of which about 14,000 (4.5%) showed an effect of 50% or more. The effect is printed as a negative number. Some of the results follow.

Each compound was assayed against human ether-à-go-go-related gene (hERG) potassium channel (human, UniProt Q12809) (assay: primary screen, population patch clamp on CHO cells stably expressing hERG).
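Further: peak tail current of the secondary pulse compared with the same well before compound.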

Chain of human ether-à-go-go-related gene (hERG) potassium channel (Q12809 whole entry, looked up): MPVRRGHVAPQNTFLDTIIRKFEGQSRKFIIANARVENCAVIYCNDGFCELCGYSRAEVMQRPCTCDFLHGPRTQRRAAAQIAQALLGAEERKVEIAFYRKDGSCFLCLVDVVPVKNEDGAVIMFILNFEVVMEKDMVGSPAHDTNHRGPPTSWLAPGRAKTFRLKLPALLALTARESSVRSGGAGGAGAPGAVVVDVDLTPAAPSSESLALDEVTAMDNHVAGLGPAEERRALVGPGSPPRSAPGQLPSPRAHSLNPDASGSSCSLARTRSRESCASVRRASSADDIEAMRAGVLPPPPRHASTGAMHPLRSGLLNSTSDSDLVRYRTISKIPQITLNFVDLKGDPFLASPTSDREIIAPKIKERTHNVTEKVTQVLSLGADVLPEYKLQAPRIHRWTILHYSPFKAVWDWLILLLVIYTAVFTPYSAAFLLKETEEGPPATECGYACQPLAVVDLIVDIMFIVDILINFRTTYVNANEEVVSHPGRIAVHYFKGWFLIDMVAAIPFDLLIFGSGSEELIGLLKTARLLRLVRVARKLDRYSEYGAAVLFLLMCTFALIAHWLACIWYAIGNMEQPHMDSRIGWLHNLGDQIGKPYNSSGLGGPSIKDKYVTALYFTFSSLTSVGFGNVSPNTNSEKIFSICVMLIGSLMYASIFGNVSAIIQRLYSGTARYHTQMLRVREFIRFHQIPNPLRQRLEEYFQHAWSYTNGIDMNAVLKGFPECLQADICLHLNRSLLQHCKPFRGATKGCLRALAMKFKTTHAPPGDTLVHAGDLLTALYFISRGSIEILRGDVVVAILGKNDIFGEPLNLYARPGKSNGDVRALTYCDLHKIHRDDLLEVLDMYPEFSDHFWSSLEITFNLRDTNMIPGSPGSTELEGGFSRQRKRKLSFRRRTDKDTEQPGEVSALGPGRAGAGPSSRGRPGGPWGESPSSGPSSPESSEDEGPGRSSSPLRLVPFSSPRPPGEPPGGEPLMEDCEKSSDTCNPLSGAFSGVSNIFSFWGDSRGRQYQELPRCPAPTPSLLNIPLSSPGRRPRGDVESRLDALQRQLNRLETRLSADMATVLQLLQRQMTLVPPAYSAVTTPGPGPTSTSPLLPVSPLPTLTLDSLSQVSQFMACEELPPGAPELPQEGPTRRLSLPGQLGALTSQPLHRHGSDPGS

SMILES	hERG current change (%, negative = inhibition) at 10uM [%]
COc1ccc(S(=O)(=O)NCCCCCC(=O)NCCCN2CCOCC2)cc1	2.99
COc1cc(/C=C2\SC(N3CCCCC3)=NC2=O)cc(OC)c1OC	5.97
Cn1c2ccccc2c2c(C(=O)O)cn(C3CCCC3)c(=O)c21	7.78
Cn1nc(CC(=O)NCCN2C(=O)CSC2=O)c2ccccc2c1=O	-29.5
O=[N+]([O-])c1nn(-c2ccccc2)n(O)c1=NCc1ccc2c(c1)OCO2	-14.6
COCCNC(=O)C(c1cccs1)N(Cc1cccs1)C(=O)Cn1nnc2ccccc21 (centres unmarked)	-12.3
O=C(NCCOC(=O)c1ccncc1)c1ccccc1	5.91
CCCCN1C(=O)C(=Nc2cccc3cnccc23)c2ccccc21	-17.2
CC(C)(C)NC(=O)c1ccnc(C(C)(C)C)c1	-0.115
CC(=O)Nc1ccc(OCC(=O)N2CCc3ccccc3C2)cc1	16.1
Cc1cc(C)c(NC(=O)CSc2nc3ccccc3c(=O)n2CCCN2CCOCC2)c(C)c1	-47.6
Cc1cccc(NC(=O)c2cc(S(=O)(=O)N(C)c3ccc(F)cc3)ccc2Cl)n1	-22
COc1ccc(S(=O)(=O)Nc2cccc(S(=O)(=O)N3CCCCCC3)c2)cc1	-35.4
CC(CCc1ccccc1)NC(=O)c1ccncc1 (centres unmarked)	7.47
O=C(NC(=O)N1CCN(c2ccc([N+](=O)[O-])cn2)CC1)c1ccccc1F	-24.5
CCOc1ccc(CNC(=O)C(C)n2nc(C)c3c(C)n(-c4ccccc4)nc3c2=O)cc1 (centres unmarked)	-16.1
CC1CCCCN1C(=O)CSCC(=O)Nc1nc(-c2cccs2)cs1 (centres unmarked)	-13.6
O=C(NC1CCCCC1)N(CCN1CCOCC1)Cc1cc2cc3c(cc2[nH]c1=O)OCCO3	-3.53
Cc1ccc(C(=O)CN(CCC(=O)O)S(=O)(=O)c2ccc([N+](=O)[O-])cc2)cc1	-25.7

SMILES	hERG current change (%, negative = inhibition) at 10uM [%]
COc1cc(C2(c3ccc(O)c(OC)c3)C(=O)Nc3c(Br)cc(Br)cc32)ccc1O	20.4
CCc1ccc(NC(=O)NCc2cccnc2)cc1	-4.49
CCCCN(c1ccccc1)S(=O)(=O)c1cccc(C(=O)O)c1	5.27
Fc1ccccc1NC(=S)NNc1ncc(C(F)(F)F)cc1Cl	21.2
CC1(C)C2CCC1(C)C(OC(=O)C[n+]1ccccc1)C2.[Cl-] (centres unmarked)	23.9
CC(C)(O)[C@@H]1[C@@H]2C[C@@]3(CC[C@]4(C)C(CCC5[C@@]6(C)CC[C@H](O)C(C)(C)C6CC[C@]54C)[C@@H]13)C(=O)O2 (some centres unmarked)	4.28
COc1ccc(OC)c(NC(=O)Cn2c(CCC(=O)O)ccc2-c2cccs2)c1	3.59
CN(C(=O)COC(=O)C(Cc1ccccc1)NC(=O)c1ccccc1)c1ccccc1 (centres unmarked)	-9.13
COc1ccc(CN(CC2CCC(C(=O)O)CC2)C(=S)Nc2ccc(C)c(Cl)c2)cc1 (centres unmarked)	8.35
CN(C(=O)Cc1noc2ccccc12)c1ccccc1	4.76
COC(=O)CSc1ccc2c(N)c(C(=O)OC)sc2c1	4.09
Cc1cc(C)cc(OC(=O)c2cccnc2)c1	13.5
CN(C)S(=O)(=O)c1ccc(C(=O)N2CCOCC2)cc1	10.5
COc1ccc(CC(=O)Nc2ccc(C(=O)Nc3ccccc3C(=O)O)cc2)cc1OC	15.4
COc1cc(C2C(C#N)=C(N)Oc3cc(C)n(CCc4ccccc4)c(=O)c32)cc2c1OCO2 (centres unmarked)	3.51
O=C1NC(=O)N(Cc2ccccc2)C(=O)/C1=C\N1CCCc2ccccc21	-2.24
S=C(NCCc1ccccc1)N/N=C/C1CCCCC1	2.45
CC1(C)CC(=O)C(C=NC2CC(C)(C)NC(C)(C)C2)=C(O)C1	4.88
Cc1ccc(C(=O)NCC(=O)OCC(=O)NCC(F)(F)F)cc1	14.1

SMILES	hERG current change (%, negative = inhibition) at 10uM [%]
Cc1nnc(SCC(=O)NC(C)(C)C)n1NCc1ccc(Cl)cc1	-10.4
CCOC(=O)CSCc1nc(-c2ccc(Cl)cc2)oc1C	-1.57
O=C(COC(=O)[C@@H]1CCCN1S(=O)(=O)c1ccc(Cl)cc1)NC12CC3CC(CC(C3)C1)C2	-12
COc1ccccc1NC1C=CS(=O)(=O)C1 (centres unmarked)	-28.7
Cc1cccc(Nc2nc(N)nc(CSC(=S)N3CCOCC3)n2)c1	-0.689
CCN(Cc1nc(-c2ccccc2)no1)C(=O)COc1cccc(OC)c1	-16.3
CSCCC(NC(N)=O)C(=O)NCC1CCCCC1 (centres unmarked)	8.35
Fc1cccc(Cl)c1Cn1nnc2c(-n3ccnc3)ncnc21	0.152
O=C1C(C=NCCCN2CCCC2=O)=C(O)c2ccccc21	12.1
CN(C)C(=O)C(OC(=O)c1ccc2c(c1)CCCC2)c1ccccc1 (centres unmarked)	-4.36
CCOc1cc2[nH]c(=S)n(C(C)C)c(=O)c2cc1OCC	-1.9
Cc1ccc(NCC(=O)c2ccc([N+](=O)[O-])cc2)cc1	-32.5
O=C(O)/C=C/C(=O)c1c(-c2ccccc2)[nH]c2ccccc12	19.7
O=C(Nc1ncc(Cc2ccc(SC(F)F)cc2)s1)c1ccccc1	8.52
CCc1ccccc1NC(=O)C/C(C)=N/NC(=O)COc1ccccc1C	9.02
COc1cccc(NC(=O)C(=O)N/N=C/c2ccc3c(c2)OCO3)c1	6.94
COC(=O)c1c(-c2ccc(OC)cc2)oc2ccc(-c3ccc(OC)nc3)cc12	10.4
NS(=O)(=O)c1ccc(CNC(=O)c2cc(=O)c3cc(Cl)ccc3o2)cc1	10.9
